Some of the results follow.
B1: chr15:80137503:80137604:+|CDS|ENSG00000086666|unk|FALSE|unique (ssRNA)
RNA: GGGAGUUCUACAGUCCGACGAUCCAAUUGCUCUUACAAUUACAAAGCCGAUGCUGCUGAGAAAAUCAGAAAAGAAAAUCCAGUAGUUGUUGGUGAAAAGAUCCAAAAGAUUUGAACUCCUGCUGGAAUACAAAAUUCUUGAGCCAACAGAGGAUUGAGCAUCA
B2: chr19:58433325:58435211:-|CDS|ENSG00000131849|control|control|control (ssRNA)
RNA: GGGAGUUCUACAGUCCGACGAUCGAAAGAUCUACACUUGUUCGGCACCAGAAAGUUCACACCAGAGAAAGGACUUAUGAGUGUAGCCAGUGUGGGAAACUCUUCAGCCAUCUUUGUAACCUUGCACAGCAUAAAAAGAUUCAUCAACAGAGGAUUGAGCAUCA
B3: ENSG00000021776:stop:overlap|stop_codon|ENSG00000021776|stop_codon|NA|stop_codon (ssRNA)
RNA: GGGAGUUCUACAGUCCGACGAUCCUGCACCGGCAGAAGCUAACACACCUCAGGAUGCCACAUCUGCCCCGGAAGAGACCAAGUAGCCAAACUGUAGUCCUUCUAAAGGAGGACAUGGCAGUCAAAAAGUCUGAGUAAAGCUGUCAACAGAGGAUUGAGCAUCA
B4: chr3:48693060:48693174:-|CDS|ENSG00000068745|unk|total|mutant (ssRNA)
RNA: GGGAGUUCUACAGUCCGACGAUCCCUUCCAGGUGUGGUAUCUGUGCGCUUUGAAGAAGAUGAAGACAGGAACUUGUGUCUAACCGCAUAUCCAUUGAAAGGGGACCAUGGAAUUGUGGACAUUGCCGAUAAUUCAGACUGUGACAACAGAGGAUUGAGCAUCA
B5: chr12:57028516:57028881:-|three_prime_utr|ENSG00000166866|control|control|control (ssRNA)
RNA: GGGAGUUCUACAGUCCGACGAUCUUAAACUACCCUUGAAGAGGACCCUUGUCCCAAACCCUUCUUGUUCUCUCCUCCAAAAGUAGCUUCCUCCAACCCGCAGCCUCUCUGCACACUAAUAAAACAUGUGGCUUGGAAAGGUUCCAACAGAGGAUUGAGCAUCA
B6: chr3:98797769:98798349:-|3pUTR|ENSG00000057019|msi1|total|mutant (ssRNA)
RNA: GGGAGUUCUACAGUCCGACGAUCUUGUUUUUGAUACCUCCUGGCAGCUUCCAUGUCACCACUUGUUCAUACCUGCCCAGAGCCCGUUUCCGACAUGGCAAAACCGAAAUCAUCUGUAAUUUAUCCGCUAACAAUGUAAAACCACAACAGAGGAUUGAGCAUCA

molecular target: MSI1 full-length (mouse, UniProt Q61474 1-362); assay: nsRBNS (natural sequence RNA bind-n-seq); RBNS binding buffer (assumed for nsRBNS): 25 mM Tris pH 7.5, 150 mM KCl, 3 mM MgCl2, 0.01% Triton X-100, 500 ug/ml BSA, 20 U/ml SUPERase-In, 4 C; UNK is unkempt and MSI1 is Musashi-1; names of the RNAs are library labels; protein concentration not given here; high values mean tight binding
Sequence of UniProt Q61474 (Q61474 whole entry): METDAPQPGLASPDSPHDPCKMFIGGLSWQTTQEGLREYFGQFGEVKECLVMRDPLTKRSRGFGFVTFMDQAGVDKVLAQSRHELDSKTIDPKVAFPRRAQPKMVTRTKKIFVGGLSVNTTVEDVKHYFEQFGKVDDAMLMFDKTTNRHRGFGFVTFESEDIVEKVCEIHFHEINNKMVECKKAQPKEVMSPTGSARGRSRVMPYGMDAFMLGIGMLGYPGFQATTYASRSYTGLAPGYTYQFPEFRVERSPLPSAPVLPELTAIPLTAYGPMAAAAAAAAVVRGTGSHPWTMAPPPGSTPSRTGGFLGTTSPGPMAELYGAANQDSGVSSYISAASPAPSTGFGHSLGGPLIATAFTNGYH

Binder	binding signal [enrichment R]
B1	0.345
B2	0.455
B3	0.385
B4	0.467
B5	0.675
B6	0.808
